# Laboratory results: the supplement of paper PMC3334620
# Whole data set: some 33,000 sequences, median “E-score (-0.5 to 0.5)” near -0.017, cut for the highest 2% near 0.3. The list shows a part of the results.
# Target: T1, Sut1 (UniProt P53032)
# T1 sequence: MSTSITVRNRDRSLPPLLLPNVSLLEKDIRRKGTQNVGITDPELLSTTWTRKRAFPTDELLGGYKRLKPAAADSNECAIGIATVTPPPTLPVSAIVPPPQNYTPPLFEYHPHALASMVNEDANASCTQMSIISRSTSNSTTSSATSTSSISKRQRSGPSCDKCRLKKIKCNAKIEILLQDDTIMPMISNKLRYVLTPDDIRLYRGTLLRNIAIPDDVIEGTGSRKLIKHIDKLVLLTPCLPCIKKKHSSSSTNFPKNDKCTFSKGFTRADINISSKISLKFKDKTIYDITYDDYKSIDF
# Test: PBM E-score (8-mer binding enrichment) (E-score (-0.5 to 0.5)); higher = stronger / more preferred TF binding; most listed sequences are background and not binding sites
# Conditions: protein concentration: 200 nM; construct: GST-full length
# Method in brief: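 GST-tagged yeast TFs (full-length or DNA-binding domain) were made by PURExpress in vitro transcription/translation and applied at about 100-200 nM to universal all-10-mer Agilent arrays. The arrays were made double-stranded by primer extension, on fresh or once-stripped slides. Bound protein was detected with fluorescent anti-GST, and scans were normalised with masliner. Each ungapped eight-base word, pooled with its reverse complement, received an E-score (modified Wilcoxon-Mann-Whitney statistic) from the Universal PBM Analysis Suite.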
row,Sequence,PBM E-score
1,CATGCGCA,-0.128
2,GCGCGGCC,-0.0724
3,AACCGGAA,0.229
4,CCGACGCA,-0.0538
5,ACCCAATA,0.139
6,ATAACATG,0.194
7,CAACACAA,0.143
8,AGCGCTGC,-0.137
9,AATTCAAT,0.156
10,ATCAGCAC,0.0955
11,CAATCGCC,-0.127
12,AGCGATCG,-0.0981
13,GAACATGC,0.0218
14,AGTCGAAC,0.0861
15,ACGAAATC,0.109
16,GATTTCAC,0.184
17,GGGCGTCA,-0.171
18,GCCGCCAA,-0.128
19,CGCAAATA,0.198
20,CCCTCACC,-0.213
21,ATTGCCCG,-0.148
22,ATTCTTGA,0.138

row,Sequence,PBM E-score
1,TATTGAAA,0.193
2,GCTGATCA,0.0284
3,CATGGCAG,-0.108
4,AGCGCTGA,-0.115
5,CCGGTTAC,-0.059
6,CCGAGCCG,0.144
7,ATCAACCA,0.00574
8,GGTCCTAC,-0.214
9,ATGATCAA,0.124
10,ATTTAATG,0.259
11,AGAGCCGC,0.0336
12,ACGAAGCT,-0.0508
13,ATGTAGCC,-0.335
14,ACATTGGA,-0.0465
15,CCGTTCTA,0.154
16,CCGCAACA,0.0608
17,CGCATCAG,0.0948
18,ATATCACC,0.181
19,ACGGGTCG,-0.13
20,TGAAGGAA,0.0901
21,CGCGCCAA,-0.064
22,AATGCTAC,0.0674

row,Sequence,PBM E-score
1,CTAGTGGA,-0.187
2,GTCTCTTA,0.104
3,CGCATTCA,0.115
4,AAGCAACG,-0.0575
5,ATGACTGA,0.0154
6,AACCTAGA,0.0488
7,GAACCGCA,0.0646
8,CGCAGCGC,-0.112
9,ATATACGA,0.0649
10,ATTCGTCC,0.155
11,AAAGTGAG,0.0249
12,ACATGTCT,0.0211
13,ATAGCGAC,-0.0526
14,GCGCCCAC,-0.179
15,AGAGGGCA,-0.226
16,ACGAAACT,0.0657
17,CCGGAGAA,0.397
18,GTCCGTAA,0.342
19,ATCTAGTA,0.0605
20,GCCATCCA,-0.206
21,CGTGTGAC,-0.0883
22,AAGTTGGC,0.124

row,Sequence,PBM E-score
1,ATCAGGGA,-0.257
2,GCTGTTCC,-0.116
3,ATGCTATG,-0.0168
4,GAGCTTAA,-0.0199
5,AGGAGTAA,0.0575
6,CCGGTACG,-0.201
7,CTTCCACC,-0.13
8,GCACTCGA,0.00498
9,CATAAGCG,-0.0855
10,ACCAGTTC,-0.147
11,ACTTATTA,0.14
12,CGAATAGA,-0.0877
13,CCTTGGCG,-0.18
14,AGGTCTAC,-0.164
15,CGCTATCC,0.0163
16,GTATATTA,0.264
17,ACTCATTC,0.0546
18,TCTCCAAA,-0.0978
19,GATTCTTA,0.221
20,AATGTTGA,0.0703
21,TGATAGAA,0.042
22,AAAGGCTT,0.0006

row,Sequence,PBM E-score
1,AAGTGCTG,-0.0872
2,CGATTGCA,0.0426
3,ACTCTAAG,-0.0309
4,CCCCTTAG,-0.206
5,ACTAGTCG,-0.0427
6,GATTCGTA,0.06
7,CTGTCCTA,-0.0818
8,AACAACCC,0.183
9,ATTCGTGC,0.091
10,CATCGAAG,0.00625
11,AATTCTGG,-0.0608
12,ATACAAGG,0.032
13,CACAACTC,0.0306
14,ATGCATCA,0.24
15,AAACGCCC,-0.0788
16,GCATCTCA,0.0536
17,CAAACAAG,0.0263
18,CTTTATCA,0.197
19,GCAGCGCA,-0.216
20,ACAGCATA,0.0341
21,AGTTTACC,0.143
